Measured values reported in PubChem BioAssay AID1963576 (National Center for Advancing Translational Sciences (NCATS), 2024).
Hit rate of the full screen: of about 46,000 compounds, about 60 (0.1%) were called active. Roughly 3% stayed inconclusive and do not appear here. Calls come from the whole dose curve; as a rule, active = well fitted inhibition curve with a large enough effect; inconclusive = small, poorly fitted or top-dose-only effect; inactive = no such curve, though single readings can be large or run the other way. This is one part of the list.

Test: Primary qHTS assay for Inhibitors of ovarian cancer metastasis using an organotypic tumor microenvironment (TME) model.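 For activity change, negative = inhibition: plate controls were DMSO wells for no effect and tomatine positive control wells for full effect.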 Note: nearly all actives have a fitted effect of over 65% in size.
Details: SKOV3ip1-GFP adhesion/invasion on 3D omental model, fluorescence; series mostly up to 45.8 µM; activity change, negative = inhibition: at the top concentration
How it was run: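 Adhesion/invasion was scored as fixed GFP-labeled SKOV3ip1 cell counts (488/509 nm), normalized to DMSO and tomatine controls. Cancer cells in serum-free medium, with four compound doses (0.36-46 umol/L), sat 2 hr at RT then 16 hr at 37 C on a 48 hr fibroblast/mesothelial/ECM culture.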

Activity change, negative = inhibition, inactive:
Cc1ccc2c(c1)cc(C(=O)NCc1ccccc1C)n2C 3.48%
Cc1cc(C)c(S(=O)(=O)NCC(c2ccco2)S(=O)(=O)c2cccs2)c(C)c1 (stereo not given) -3.84%
CC1CCc2onc(C(=O)N3CCN(c4cccc(Cl)c4)CC3)c2C1 (stereo not given) -15.3%
CC(C)Oc1ccc(CNC(=O)c2ccc(NC(=O)N3CC(C)Sc4ccccc43)cc2)cc1 (stereo not given) -4.61%
O=C(/C=C/c1ccccc1)Nc1nc2n(n1)C(c1ccc(F)cc1)C=C(c1ccccc1)N2 (stereo not given) -0.574%
CCc1nn2c(=O)c(S(=O)(=O)Nc3ccc(C)c(C)c3)c(C)nc2s1 9.48%
CCOCCc1nn2c(=O)cc(COC(=O)c3ccc(NC(=O)C(C)(C)C)cc3)nc2s1 -6.58%
COc1ccc(NC(=O)c2nc(-c3ccc(C)cc3)n3c2CCCCC3)c(OC)c1 9.32%
CCc1cccc(C)c1NC(=O)c1cnn(-c2ccc(OC)cc2)c1C1CCN(C(=O)OC(C)(C)C)CC1 -8.46%
Cc1ccc(SCC(=O)Nc2ccc3oc(-c4ccccc4F)nc3c2)cc1 -1.11%
CCOC(=O)c1ccccc1NC(=O)c1cnc(N2CCOCC2)c2ccccc12 -18.7%
O=C(NCc1cccs1)c1ccc(CSc2nc3ccncc3n2Cc2ccccc2F)cc1 -9.66%
CCC(=O)N1CCc2cc(S(=O)(=O)NC(C(=O)NCCc3cccc(C)c3)C(C)C)ccc21 (stereo not given) -5.33%
CN(Cc1ccco1)S(=O)(=O)c1nnc(NC(=O)c2ccccc2Cl)s1 7.36%
CCN(CC)c1nn2c(=O)c(C(=O)NCc3ccc(N(C)C)cc3)cnc2s1 6.53%
Cc1nn(C)c(C)c1CCNC(=O)Nc1ccccc1C(F)(F)F -7.53%
CCc1ccccc1N(C)C(=O)c1sc2nc3n(c(=O)c2c1C)CCCCC3 -0.909%
COc1ccccc1CNC(=O)C1CCN(S(=O)(=O)c2cn(C)cn2)CC1 -0.253%
O=C(NCCc1csc(-c2ccc(F)cc2)n1)c1cccc(F)c1 -3.95%
Cc1ccc(C2c3[nH]c4ccccc4c3CCN2C(=O)CSCc2ccc(F)cc2)cc1 (stereo not given) 2.2%
COc1cc(Cl)c(C)cc1Nc1nc2ccccc2n2cnnc12 0.637%
CC1CCCN(CCCNC(=O)c2cc3c(Cl)nc4ccccc4c3s2)C1 (stereo not given) -6.12%
COc1ccc(C(=O)CCC(=O)Nc2ccc(C)c(Cl)c2)cc1 -24.2%
COCc1cc(C)nc2sc3c(=O)n(-c4ccccc4C(F)(F)F)nnc3c12 -3.41%
COc1ccc(CNC(=O)C2CCN(S(=O)(=O)c3ccc4c(c3)CCCN4C(C)=O)CC2)cc1 -6.71%
Cc1cccc(C)c1-n1ncc(C(=O)N2CCN(c3ncccn3)CC2)c1C1CCN(C(=O)OC(C)(C)C)CC1 7.4%
Cc1cccc(NC(=O)C2CCN(S(=O)(=O)c3ccc4c(c3)CCCN4C(=O)C3CCC3)CC2)c1 3.51%
CCCCCCCc1ccc(CCc2cccc(O)c2C(=O)O)cc1 11.3%
COCCCn1c(=O)c2sccc2n2c(CCCC(=O)NC3CCC(C)CC3)nnc12 (stereo not given) -0.231%
CCCn1cc(S(=O)(=O)c2cc(C)ccc2C)c(=O)c2cc(F)c(N3CCN(CC)CC3)cc21 -10.2%
CCCN1CCN(CCCNC(=O)Cn2nc(C)n3c(cc4c(OC)cccc43)c2=O)CC1 -9.67%
CC(C)(N)C(=O)N[C@H](COCc1ccccc1)C(=O)N1CCC2(CC1)CN(S(C)(=O)=O)c1ccccc12 24.4%
Cc1ccc(NC(=O)CSc2nc3ccc(NC(=O)CCc4ccccc4)cc3s2)cc1 4.78%
COc1cc(NC(=O)CSc2nc(-c3ccc(C(C)C)cc3)no2)cc(OC)c1 -5.41%
COc1ccc(C(=O)N(Cc2ccc(N(C)C)cc2)CC2CCCO2)cc1 (stereo not given) -4.69%
COC(=O)C=CC(=O)OC 14.6%
Cc1ccc(C)c(N2CCN(S(=O)(=O)c3cn(C)c(C)n3)CC2)c1 -10.8%
CCC(C)n1c(=N)c(C(=O)NC2CCCCC2)cc2c(=O)n3ccccc3nc21 (stereo not given) 30%
CC(=O)Nc1ccc2nc(NC(=O)CS(=O)(=O)c3ccc(C)cc3)sc2c1 -5.38%
Cc1ccc(NC(=O)Cn2cnc3c2c(=O)n(C)c(=O)n3C)cc1C 2.96%
COc1cc(Cl)c(C)cc1NC(c1ccccc1)c1nnc(-c2ccccc2Cl)o1 (stereo not given) -3.98%
Cc1ccccc1CNC(=O)c1ccc2nc(C(C)C)oc2c1 1.09%
Cc1ccc(CNC(=O)c2cc3ccc4cccnc4c3[nH]2)cc1 19.5%
O=C(c1cccc(Cl)c1)N1c2ncnn2C2(CCCCC2)[C@@H]2CCCC[C@@H]21 -0.643%
Cc1ccc(Cl)cc1NC(=O)CCc1c(C)nc2c3cccnc3nn2c1C -0.176%
Cc1ccc2c(=O)cc(C(=O)Nc3sc4c(c3C(=O)NCC3CCCO3)CCCC4)oc2c1C (stereo not given) 7.73%
CC(C)(C)OC(=O)N1CCC(c2c(C(=O)NCCN3CCOCC3)cnn2-c2ccc(F)cc2)CC1 -5.26%
COc1ccc(-c2ccc3c(N)c(C(=O)NCc4ccc(C)cc4)sc3n2)cc1 28.9%
Cc1ccc2c(c1)N(C(=O)N1CCC(C(=O)NCCc3ccccc3)CC1)CC(C)O2 (stereo not given) -34.1%
COc1ccc(N2Cc3cccc(C(=O)Nc4ccc(Cl)cc4)c3C2=O)cc1 1.98%
CCC(C=C[C@@H]1OC(=O)C=C[C@H]1C)=C[C@H](C)CC=CC(C)=C[C@@H](C)C(=O)[C@@H](C)[C@H](O)[C@@H](C)CC(C)=CC(=O)O -12.7% [at 1.72 µM]
CCOc1ccc(-c2nonc2NC(=O)c2oc3cc(C)ccc3c2C)cc1OCC -8%
O=C(COc1ccc(F)cc1)Nc1nnc(SCc2cc(=O)n3ccccc3n2)s1 8.8%
Cc1ccc(CN(Cc2ccco2)C(=O)COc2cccc(C)c2C)o1 -8.34%
CCOC(=O)C1CCCN(C(=O)c2ccc3c(c2)sc2nc(-c4ccc(C)cc4C)cn23)C1 (stereo not given) -2.3%
COc1cccc(Cn2c(SCc3ccc(C(=O)N4CCCCC4)cc3)nc3ccncc32)c1 12.5%
O=C(Nc1nc2n(n1)C(c1ccccc1)C=C(c1ccc(Cl)cc1)N2)c1ccco1 (stereo not given) -7.42%
O=C(COc1ccc([N+](=O)[O-])cc1)N1CCC(c2nc3ccccc3s2)CC1 -23.9%
COc1cc([C@H]2Oc3cc([C@H]4Oc5cc(O)cc(O)c5C(=O)[C@H]4O)ccc3O[C@H]2CO)ccc1O 16.3%
CCOc1cccc2sc(N3CCN(C(=O)C(C)(C)C)CC3)nc12 -2.81%
Cc1nc(N2CCOCC2)c2c(C(=O)N(C)Cc3ccccc3)c(C)oc2n1 5.21%
O=C(Cn1nc(-c2ccccc2)c2cnc3ccc(F)cc3c21)NC1CCCC1 -3.45%
CCOC(=O)C1CCN(c2cc(C)nc3c(-c4ccccc4OC)c(C)nn23)CC1 10.7%
O=C(Nc1nnc(S(=O)(=O)N2CCCCCC2)s1)c1ccccc1F -1.84%
CCCCNc1nc(Oc2ccc(=O)n(-c3ccccc3)n2)nc(N(CC)CC)n1 -0.343%
Cc1ccc(-c2nnc(SCC(=O)N3CCCc4ccccc43)o2)cc1 -5.39%
O=C(Nc1ccc(Cl)cc1)N1CCC(CN2CCCCCC2)CC1 12.9%
COc1cccc(Cn2ccn(-c3ccc(F)cc3)c(=O)c2=O)c1 -0.573%
Cc1ccc(C(=O)c2oc3ccccc3c2NC(=O)c2cc(=O)c3cc(C)ccc3o2)cc1 0.173%
COC(=O)c1ccc(-n2nnc(-c3nc(-c4ccccc4Cl)no3)c2C)cc1 -0.488%
CCNC(=O)C1CCCN(c2ncnc3onc(C)c23)C1 (stereo not given) 3.08%
Cc1cccc(Cn2c(SCc3ccc(C(=O)NCc4ccccc4)cc3)nc3cccnc32)c1 -19.9%
COc1ccc(CNC(=O)CCc2c(C)c3ccc(OC)c(C)c3oc2=O)cc1OC 2.61%
COc1ccc(NC(=O)Cn2cc(C(=O)c3ccncc3)c(=O)c3cc(C)ccc32)cc1Cl 2.96%

outcome, inactive:
CCOC(=O)CNC(=O)c1cc2c(=O)n3cccc(C)c3nc2n1C
Cc1cc2oc(C(=O)N(Cc3ccco3)Cc3ccccc3Cl)c(C)c2cc1C
COc1ccc(CNC(=O)Cn2c(-c3ccccc3)cc(C(C)=O)c2C)cc1OC
COc1ccc(N2CC(NC(=O)/C=C\c3ccccc3)CC2=O)cc1OC (stereo not given)
Cc1ccc(C)c(CSc2nnc3[nH]c(=O)cc(-c4ccccc4)n23)c1
CCc1ccccc1NC(=O)c1sc(-n2nc(C)c(Cc3ccccc3)c2C)nc1C
CCOC(=O)c1c(S(=O)(=O)NCC(=O)NCc2ccccc2Cl)c(C)n(C)c1C
CCN1CCN(Cc2c(O)ccc3c(=O)c(Oc4ccccc4C(C)C)c(C(F)(F)F)oc23)CC1
COc1ccc(NC(=O)CSc2cn(CCNC(=O)c3c(F)cccc3F)c3ccccc23)cc1
COc1ccc(C2=Nc3ccc(OC(F)(F)F)cc3NC(c3cccnc3)=N2)cc1
CCN(C(=O)Cn1c(=O)n(Cc2ccccc2)c(=O)c2c1c1cc(OC)ccc1n2C)c1ccccc1
COc1ccc(-c2noc(-c3ccc(NC4CCCC4)c([N+](=O)[O-])c3)n2)cc1OC
Cc1cc(Cl)ccc1NC(=O)CN1C(=O)COc2ccc(S(=O)(=O)Nc3ccccc3)cc21
CC(C)(CC(=O)OCC(=O)Nc1ccccc1F)CC1=NS(=O)(=O)c2ccccc2N1
CCOC(=O)Cn1c(=O)c2c(nc(N3CCOCC3)n2Cc2ccccc2)n(C)c1=O
COc1cc(NC(=O)c2ccc3c(Cl)c4c(nc3c2)CCC4)cc(OC)c1OC
CC(=O)c1cccc(-n2c(=O)c3c4c(sc3n(CC(=O)Nc3ccccc3F)c2=O)CN(C(C)=O)CC4)c1
Cc1cc(NC(=O)c2cc(-c3ccc(Br)cc3)on2)nn1Cc1ccc(Cl)cc1
CCOc1ccc(N(C(C)C(=O)NCCSc2ccc(Cl)cc2)S(C)(=O)=O)cc1 (stereo not given)
Cc1cc(NC(=O)CSc2nc3c([nH]c4ccccc43)c(=O)n2-c2ccccc2F)no1
Cc1ccc(NC(=O)c2nnn(Cc3cccc(C(F)(F)F)c3)c2N)c(C)c1
